Measured values taken from publication PMC6919601, “Identification of Plasmodium dipeptidyl aminopeptidase allosteric inhibitors by high throughput screening” (PLoS ONE, 2019).
Screen size: about 110,000 compounds; about 230 (0.21%) showed an effect of 50% or more. The list shows a part of the results.

Each compound was assayed against DPAP1 (Plasmodium falciparum, UniProt Q8IIJ9) (assay: primary screen, percent inhibition; read by cleavage of a fluorogenic dipeptide substrate; higher = more effect of the substance).
DPAP1, sequence (Q8IIJ9 whole entry, looked up): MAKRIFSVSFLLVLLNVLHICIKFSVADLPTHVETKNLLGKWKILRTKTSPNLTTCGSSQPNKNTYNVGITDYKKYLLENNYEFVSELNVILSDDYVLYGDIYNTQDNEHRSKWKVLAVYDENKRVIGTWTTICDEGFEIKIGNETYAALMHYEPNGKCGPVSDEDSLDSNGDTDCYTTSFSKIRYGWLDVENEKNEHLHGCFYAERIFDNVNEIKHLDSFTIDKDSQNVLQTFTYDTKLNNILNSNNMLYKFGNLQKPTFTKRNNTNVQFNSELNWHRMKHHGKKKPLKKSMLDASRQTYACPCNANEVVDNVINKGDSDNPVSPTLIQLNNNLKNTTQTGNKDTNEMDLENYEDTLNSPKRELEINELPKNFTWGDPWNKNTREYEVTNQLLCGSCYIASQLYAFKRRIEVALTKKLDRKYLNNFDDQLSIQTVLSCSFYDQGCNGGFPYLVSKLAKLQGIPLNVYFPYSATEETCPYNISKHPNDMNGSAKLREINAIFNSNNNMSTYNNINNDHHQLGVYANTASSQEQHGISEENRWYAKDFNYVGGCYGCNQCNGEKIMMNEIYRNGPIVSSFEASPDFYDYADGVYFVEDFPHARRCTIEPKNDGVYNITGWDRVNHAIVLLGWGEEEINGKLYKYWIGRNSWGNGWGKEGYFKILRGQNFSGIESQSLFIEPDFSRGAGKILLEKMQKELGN
Design: species or system P. falciparum D10 trophozoite lysates; single well
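Note: 30 min substrate incubation versus DMSO and 10 µM JCP410 controls.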

Row | Structure (SMILES) | % Inhibition @ 10 uM [%]
1 | O=C1C2C3C=CC(C3)C2C(=O)N1c1ccccc1 (stereo not shown) | -0.0369
2 | COc1ccccc1C(=O)ON1C(=O)c2ccccc2C1=O | 2.68
3 | CCOC(=O)c1cnc2cc(-c3ccc(Br)cc3)nn2c1-c1ccccc1 | -0.169
4 | CS(=O)(=O)N(CC(=O)Nc1cc(C(F)(F)F)ccc1Cl)Cc1ccccc1 | -1.82
5 | O=C(c1ccccc1)N(CCCO)CC(O)Cn1c2ccccc2c2ccccc21 (stereo not shown) | -6.94
6 | CC1(C)CC(=O)c2sc(N3CCOCC3)nc2C1 | 2.05
7 | Cc1cc(NCc2ccccc2)c2ccccc2n1 | 0.343
8 | Cc1ccc(C)c(N(CC(=O)NC2CCCC2)S(=O)(=O)c2ccccc2)c1 | 0.793
9 | O=C(Nc1ccccn1)c1ccc(N2C(=O)C3C4C=CC(C4)C3C2=O)cc1 (stereo not shown) | -2.58
10 | Cc1ccc(C(C)NC(=O)c2cccs2)cc1C (stereo not shown) | -4.02
11 | Clc1cccc(-c2nc(N3CCOCC3)nc3c2COc2ccccc2-3)c1 | 2.32
12 | CN(C)c1ccc(C(=C2CN3CCC2CC3)c2ccc(N(C)C)cc2)cc1 | 4.69
13 | CC(O)Cn1c2ccccc2c2ccccc21 (stereo not shown) | 3.85
14 | Cc1cc(NC(=O)CNC(=O)c2ccccc2)no1 | -1.81
15 | CC1=C(c2ccc(C)cc2)S(=O)(=O)N=C1N1CCN(C2CCCCC2)CC1 | -1.08
16 | Cc1ccc(CN2CCNC(=O)C2CC(=O)O)o1 (stereo not shown) | 5.54
17 | COc1ccccc1N(CC(=O)NCc1ccco1)S(C)(=O)=O | -2.8
18 | COCCCn1c(=O)c2sccc2n2c(CCCC(=O)N3CCN(c4ncccn4)CC3)nnc12 | -5.95
19 | CCOC(=O)c1cnc2ccc(Br)cc2c1NCCc1ccc(OC)c(OC)c1 | -4.84
20 | CCOC(=O)c1cc(-c2ccc(F)cc2)n(CC(=O)N2C(C)CCCC2C)c1C (stereo not shown) | 3.07
21 | O=C(O)c1cccc(S(=O)(=O)N2CCCCC2)c1 | 3.74
22 | Cc1ccccc1C(=O)NC1CCCCC1NC(=O)c1ccccc1C (stereo not shown) | 1.28
23 | CCN(CC)CCNC(=O)c1ccccc1NC(=O)Nc1cccc(C(F)(F)F)c1 | -6.25
24 | CC1CCCC(N2CCN(c3ccc(Cl)cc3)CC2)C1 (stereo not shown) | 1.57
25 | Cc1ccc(CNC(=O)Nc2nnc(N(C)Cc3ccccc3)s2)cc1 | 6.91

Row | Structure (SMILES) | % Inhibition @ 10 uM [%]
26 | COCc1nc2ccccc2n1CCC1CCCCC1 | -2.5
27 | Fc1ccccc1C1CC(c2ccc(Cl)cc2OC(F)F)Nc2ncnn21 (stereo not shown) | -8.88
28 | O=C1C(/C=N/c2[nH]ncc2-c2ccccc2)=C(O)c2ccccc21 | -4.76
29 | CCc1nnc(NC(=O)c2cc(Cl)ccc2Cl)s1 | 9.19
30 | O=C(c1cccs1)N(Cc1cccc(F)c1)C1CCS(=O)(=O)C1 (stereo not shown) | 3.62
31 | CCOC(=O)N1CCN(C2CC(=O)N(c3cccc(Br)c3)C2=O)CC1 (stereo not shown) | -0.725
32 | Cc1ccc(C2=NS(=O)(=O)N(C)C(C(=O)N3CCN(C)CC3)=C2)cc1 | 0.655
33 | N#CC(C#N)=CNCc1ccccc1 | -3.04
34 | Cc1cccc(Oc2cc(-n3nc(C)c(C#N)c3N)ncn2)c1 | -10.5
35 | O=C(Cn1cc(C(=O)C2CCCCC2)c2ccccc21)NCc1ccccc1 | -3.13
36 | Cc1ccc(C(=O)N2CCN(c3ccccc3)CC2)o1 | -2.34
37 | Cc1ccccc1S(=O)(=O)Nc1nc2c(Cl)cccc2s1 | -3.45
38 | Cc1cc(C(=O)C(=O)Nc2nccs2)c(C)n1Cc1ccccc1 | 2.32
39 | CCCN1C(=O)c2[nH]nc(-c3ccco3)c2C1c1ccc(O)c(OC)c1 (stereo not shown) | -2.84
40 | Cc1ccccc1OCc1nc2ccccc2[nH]1 | 2.1
41 | COc1ccc(CNCc2c(C(=O)O)c(C)n(Cc3cc(C)ccc3C)c2C)cc1 | -3.67
42 | Cc1ccc(-c2cc3c4c(C)n(C5CCCCC5)c(C)c4c(C)nn3c2)o1 | 3.81
43 | O=c1cc(O)nc(SCc2ccccc2)n1-c1ccccc1 | -1.05
44 | CCSc1ncc(Cl)c(C(=O)Nc2sc3c(c2C(=O)NCCOC)CCCC3)n1 | 0.569
45 | Cn1nc(C(=O)NCCN(Cc2ccco2)C2CCCC2)c2c1-c1ccccc1S(=O)(=O)C2 | 1.23
46 | O=C(c1ccccc1)N1CCN(C(=O)c2ccc(Cl)cc2Cl)CC1 | -1.93
47 | CCCOc1ccc(C2C(C#N)=C(N)OC3=C2C(=O)CCC3)cc1OCC (stereo not shown) | -2.68
48 | CC[C@@H](C)[C@H](NC(=O)c1cccc(CN)c1)C(=O)N[C@@H](CCc1ccccc1)C(=O)COc1ccccc1 | -3.97
49 | CCOc1ccc(Nc2nc(-c3cccs3)cs2)cc1 | -1.37
50 | COc1ccc(-c2cc3n(c2)CCn2c(C)ccc2-3)cc1 | 14.4

Row | Structure (SMILES) | % Inhibition @ 10 uM [%]
51 | Clc1ccnnc1N1CCCC2CCCCC21 (stereo not shown) | 4.47
52 | COc1ccc(Cn2c(C(=O)O)c(CNCCc3ccc(OC)c(OC)c3)c3ccccc32)cc1 | 8.65
53 | CCO/C(O)=C1/C(C)=Nc2ncnn2C1c1cccs1 (stereo not shown) | -3.37
54 | COc1ccc(NC(=O)c2cc(Cl)c(Cl)c(S(=O)(=O)N3CCOCC3)c2)cc1 | -2.83
55 | C(CN1CCOCC1)NC1C2CC3CC(C2)CC1C3 (stereo not shown) | -0.414
56 | CN1C(=O)C(C2c3c(n(C)c(=O)n(C)c3=O)Oc3ccc4ccccc4c32)C(=O)N(C)C1=O (stereo not shown) | 4.12
57 | COc1ccc(NC(=O)CN(c2ccc(C)c(Cl)c2)S(C)(=O)=O)cc1 | -5.67
58 | Oc1c2c(nc3nnnn13)-c1ccccc1CC21CCCCC1 | 1.24
59 | Cn1c(=O)n(Cc2ccccc2)c(=O)c2c1nc1n2CCS1 | 2.41
60 | Cc1ccc(CS(=O)Cc2ccc(C(=O)NC3CCCC(C)C3C)o2)cc1 (stereo not shown) | 3.24
61 | CC1CC(C)CN(CCCNC(=O)CCCn2ncn3c(cc4occc43)c2=O)C1 (stereo not shown) | 6.31
62 | CC1(C)CC2CC(C)(CN2C(=O)CN2C(=O)c3ccccc3C2=O)C1 (stereo not shown) | -1.46
63 | O=C(CN(Cc1ccccc1)S(=O)(=O)c1ccc(F)cc1)Nc1cccc(C(F)(F)F)c1 | -7.58
64 | O=C(Nc1ccc(Cl)cc1[N+](=O)[O-])c1ccc([N+](=O)[O-])cc1 | 0.247
65 | O=C(Nc1ccc(Cl)cc1C(=O)N1CCCCC1CCO)c1ccc(Cl)cc1Cl (stereo not shown) | 2.17
66 | CC(CN1CCOCC1)c1ccccc1 (stereo not shown) | 0.0792
67 | Cc1cccc(C(=O)N(C)c2ccccc2)c1 | -4.4
68 | CCc1nc(O)c2c(n1)-c1ccccc1CC21CCCC1 | -0.267
69 | O=C(Nc1nc(O)nc(/C=C/c2ccccc2)n1)NS(=O)(=O)c1ccccc1Cl | -3.48
70 | CCCC1CCc2c(sc(NC(=O)C3CC4CCC3C4)c2C(N)=O)C1 (stereo not shown) | 6.65
71 | O=C(NCCC1=CCCCC1)c1cc2c(s1)-c1ccccc1OC2 | 1.89
72 | COc1ccc(C2=NCCc3cc(OC)c(OC)cc32)cc1 | 1.83
73 | COc1ccccc1CN1COc2c(cc3c(oc(=O)c4ccccc43)c2C)C1 | -2.57
74 | COc1cccc(C(=O)N2CCN(c3cccc(C)c3C)CC2)c1 | -8.06
75 | Cn1c(NCc2ccc(C(F)(F)F)cc2)nc2ccccc21 | 1.64

Row | Structure (SMILES) | % Inhibition @ 10 uM [%]
76 | Cc1ccccc1C(=O)Nc1ccc(-c2cn3cccnc3n2)cc1 | 2.93
77 | Cc1ccccc1C(=O)Nc1c(C(=O)N2CCC(C)CC2)cnn1-c1ccccc1 | -5.9
78 | COc1cc(C2CC(=O)C=C(O)C2)cc(OC)c1OC (stereo not shown) | 2.09
79 | O=C(Nc1ccc2c(c1)C(=O)N(C1CCCCC1)C2=O)c1ccc(Br)o1 | 9.19
80 | c1ccc2c(c1)N=C1CCCCC1C1(CCCCC1)N2 (stereo not shown) | -0.582
81 | COc1ccc(OCC2c3cc(OC)c(OC)cc3CCN2C(=O)C(C)(C)C)cc1 (stereo not shown) | -0.587
82 | COC(=O)[C@H](Cc1ccccc1)NC(=O)O[C@@H](CC(C)C)C(=O)NCC#N | -7.36
83 | COc1ccc2c(CNCc3ccc(C)cc3)c(C(=O)O)n(Cc3ccc(F)cc3Cl)c2c1 | 6.94
84 | COc1ccc(S(=O)(=O)NCCSCc2ccc(Cl)cc2Cl)cc1 | 0.726
85 | O=C(Nc1cccc(F)c1)Nc1cccc(Cl)c1 | -0.0404
86 | C#CC(C)(CC)NC(=O)Cn1nnc(-c2ccccc2C)n1 (stereo not shown) | 2.72
87 | Cc1nc(Cl)c(C#N)c2c1COC(C)(C)C2 | -1.1
88 | CC1CCN(S(=O)(=O)c2ccc3c(ccn3CCC(=O)NCC3CCCO3)c2)CC1 (stereo not shown) | 2.96
89 | Cc1ccc2nc3c(O)n(CC(=O)N4CCN(C5CCCCC5)CC4)ncc-3c2c1 | 2.42
90 | O=S(=O)(c1ccc(-c2ccc(O)nn2)s1)N1CCN(CCOc2ccc(Cl)cc2)CC1 | 6.65
91 | CCCNC(=O)NS(=O)(=O)c1cnccc1Sc1ccc(Cl)cc1 | -3.92
92 | COc1ccc(-c2nc(CS(=O)CC(=O)NC3CCCc4ccccc43)c(C)o2)cc1OC (stereo not shown) | -6.64
93 | COc1ccc(CCN2C(=O)CN(C3CCCCCC3)C(=O)C2c2ccccc2F)cc1OC (stereo not shown) | -2.26
94 | COc1ccc(-c2nc3c(n2O)CCCC3=O)cc1 | -5.11
95 | CCn1c(C)cc(/C=C2\NC(=O)N(CC(=O)Nc3ccc(F)cc3)C2=O)c1C | 0.528
96 | COc1ccc(CCNC(=O)c2ccc(N(C)S(C)(=O)=O)cc2)cc1 | 3.49
97 | Cc1cccc(OCC(=O)Nc2ccccc2C(=O)Nc2ccccc2)c1 | -5.95
98 | Cc1ccccc1COc1ccc(C2C(C#N)=C(N)Oc3[nH]nc(C)c32)cc1 (stereo not shown) | -1.64
99 | Cc1ccnc(NC(=O)c2ccc(-c3ccccc3)s2)c1 | 4.4
100 | COc1cc(C(=O)Nc2nc3ccc(S(C)(=O)=O)cc3s2)cc(OC)c1OC | -2.53
